# In PubChem BioAssay AID1345083 (National Center for Advancing Translational Sciences (NCATS), 2018):
# “And” between values parts separate entries of the source, which are not always exact repeats. Equal values may be shown once. The whole screen tested about 94,000 compounds, of which about 6,200 (6.6%) were called active. The inconclusive results got no clear call from the source; some entries with a clear call stand among them for comparison. The call rests on the fitted dose curve; in most records, active means well fitted inhibition curve with a large enough effect; inconclusive means small, poorly fitted or top-dose-only effect; inactive means flat fitted curve, though single readings scatter. Potencies beside an inconclusive call are fits to weak or partial responses and may not hold up.
# Test: Cytotoxic Profiling in HEK 293 Cell Line of Diverse Libraries Using Quantitative High-Throughput Screening; further: nearly all actives have a fitted effect of over 60% in size
# Conditions: HEK 293 viability, ATP luminescence (CellTiter-Glo), 48-72 h; activity change, negative = cytotoxicity: at 115 µM (top of the series) unless noted; series mostly up to 115 µM
# How it was run: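 250 HEK 293 cells/well; compound by pintool; incubated 48 or 72 hr at 37 degree Celsius; CellTiter-Glo added, 10 min RT, luminescence imaged.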
# On the % scale 0 is the no-effect control and ±100 the full control effect; potency means the concentration at half of the fitted maximal effect; tags describe the fitted curve by direction and shape.
SMILES,Potency,"activity change, negative = cytotoxicity",outcome
O=C(CCCc1ccccc1)N1CCCCC1c1nc(-c2ccncc2)n[nH]1 (stereo unspecified),"inconclusive: 39.8 µM [inhibitor, partial curve, poor fit]",,
COc1ccc(C)cc1NC(=O)Cn1cccc1-c1nc(-c2ccccc2)no1,"inconclusive: 50.1 µM [inhibitor, partial curve, poor fit]",,
CCCc1noc(-c2cn(C3CCN(C(=O)c4ccc(C)s4)CC3)nn2)n1,"inconclusive: 22.4 µM [inhibitor, full curve]",,
Cc1noc(C2CC3(CCN(C(=O)c4cccn4C)CC3)CN2C)n1 (stereo unspecified),,inactive: -21.5%,
CC(C)S(=O)(=O)N1CCC2(CC1)NCCc1c2[nH]c2ccccc12,"inconclusive: 63.1 µM [inhibitor, partial curve, poor fit]",,
COc1ccccc1CCC(=O)N1CCC2(CC1)NC(=O)N(c1cccc(F)c1)N2,"inconclusive: 25.1 µM [inhibitor, full curve]",,
O=C(c1cccc(F)c1)N1CCN(c2nnc3ccc(Cl)cn23)CC1,,inactive: -3.86%,
COCCCNC(=O)N1CCCCC1c1nc(CCOc2cccc(C)c2)no1 (stereo unspecified),"inconclusive: 79.4 µM [inhibitor, partial curve]",,
O=C1[C@H]2CN(Cc3ccc(F)cc3Cl)C[C@H]2C(=O)N1Cc1ccc2c(c1)OCO2,"inconclusive: 50.1 µM [inhibitor, single point]",,
O=C1C(N2CCN(S(=O)(=O)c3ccccc3)CC2)CCN1CCc1ccccc1 (stereo unspecified),"inconclusive: 100 µM [inhibitor, single point]",,
CC(CNC(=O)CCc1ccc2c(c1)CN(S(C)(=O)=O)CCO2)c1ccccc1 (stereo unspecified),"inconclusive: 100 µM [inhibitor, single point]",,
O=C1NCCCCCN(Cc2cn[nH]c2-c2cccs2)[C@H]2CCC[C@@H]12,,inactive: -9.03%,
Cc1ccc(OCC(O)CNc2nc(C)nc3c2c(C)nn3C)c(C)c1 (stereo unspecified),"inconclusive: 39.8 µM [inhibitor, partial curve, poor fit]",,
CCC(=O)N1CCN(c2nc3c(s2)CC(C(=O)Nc2ccc4c(c2)OCO4)CC3)CC1 (stereo unspecified),active: 14.1 µM,,
CN(Cc1ccccc1)Cc1ccc(-c2ccccc2)cc1,"inconclusive: 126 µM [inhibitor, single point]",,
O=C(Cc1ccccc1)N1CCn2c(nnc2[C@@H]2C[C@@H](O)CN2Cc2ccccc2)C1,"inconclusive: 79.4 µM [inhibitor, partial curve]",,
Cc1noc(-c2ccc3c(c2)OCO3)c1C(=O)NCc1ccccc1,"inconclusive: 100 µM [inhibitor, single point]",,
Cc1nn2c(c1-c1cccnc1N1CCOCC1)N(C(=O)COc1ccccc1)CCC2,,inactive: 1.44% [at 172 µM],
Cc1nn(-c2ccc(C(C)C)cc2)c(C)c1[C@@H]1C=C[C@@H](NC(=O)Nc2ccc(Cl)cc2)C1,"inconclusive: 10 µM [inhibitor, partial curve, poor fit]",,
CC(C)CC(=O)C(=O)N1CCN(Cc2cccnc2)[C@@H]2CS(=O)(=O)C[C@@H]21,,,inactive
COc1ccccc1C(=O)N1CCc2[nH]nc(C(=O)NCCCc3ccccc3)c2C1,"inconclusive: 56.2 µM [inhibitor, partial curve, poor fit]",,

SMILES,Potency,"activity change, negative = cytotoxicity",outcome
O=C(N[C@@H]1CN(Cc2ccc3cc[nH]c3c2)C[C@H]1CO)c1ccccc1,"inconclusive: 50.1 µM [inhibitor, partial curve, poor fit]",,
Cc1ccc(NC(=O)N2CCC(OC3CCN(S(C)(=O)=O)CC3)CC2)cc1,,inactive: -12.7%,
CN(Cc1ccsc1)Cc1cccc(C(F)(F)F)c1,,inactive: -15.2% [at 172 µM],
COc1ccc(CNC(=O)C[C@@H]2C[C@@H](C(C)C)[C@H](CC#N)C=C2C)cc1,"inconclusive: 112 µM [inhibitor, partial curve, poor fit]",,
C#CCNC(=O)c1nc(-c2cccc(F)c2)c2cnccn12,"active: 63.1 µM and inconclusive: 70.8 µM [inhibitor, partial curve, poor fit]",,
CC(=O)Nc1ccc(-c2nnc3n2CCN(C(=O)c2ccc(C)cc2)C3)cc1,,inactive: 2.76%,
O=C1CCN(S(=O)(=O)c2ccccc2)CCCC(C(=O)NCCCN2CCOCC2)CCN1 (stereo unspecified),,inactive: -5.05%,
COC1CCC12CCN(C(=O)CCc1c[nH]c3ccccc13)CC2 (stereo unspecified),,inactive: -1.07%,
CCn1cc(C(CC(=O)N2CCC(C)CC2)c2cccc(Cl)c2)c2ccccc21 (stereo unspecified),active: 39.8 µM,,
COc1ccc(C(=O)N2CCC(Cc3ccc(CCC(=O)N(C)C)cc3)CC2)cn1,"inconclusive: 31.6 µM [inhibitor, partial curve, poor fit]",,
O=C(CCC1CCCC1)N1CCCC(c2noc(COc3ccccc3)n2)C1 (stereo unspecified),"inconclusive: 50.1 µM [inhibitor, partial curve, poor fit]",,
Cn1ncc2c(C(=O)NCc3cccc(Cl)c3)cc(-c3cccnc3)nc21,"inconclusive: 44.7 µM [inhibitor, partial curve, poor fit]",,
CCc1ccc(S(=O)(=O)N2CC(c3nc(Cc4ccccc4)no3)C2)cc1,"inconclusive: 56.2 µM [inhibitor, partial curve, poor fit]",,
N#Cc1ccc(CN2CC3(C2)C(=O)Nc2ccccc23)cc1,"inconclusive: 126 µM [inhibitor, partial curve, poor fit]",,
COCC(=O)N1CCCC(C(=O)NCc2nncn2C2CCCCC2)C1 (stereo unspecified),,inactive: -11.2%,
COc1ccc(NC(=O)c2cc3c(N(C)Cc4ccccc4)nc(C)cn3n2)cc1,"inconclusive: 39.8 µM [inhibitor, full curve, poor fit]",,
C[C@]1(CO)[C@H]2Cc3sc(NC(=O)c4cccs4)nc3[C@@H](CC(=O)NCc3cccnc3)[C@]2(C)CC[C@H]1O,"inconclusive: 50.1 µM [inhibitor, partial curve, poor fit]",,
Cc1ccc(C(=O)N2CCC(Cc3nc(-c4ccccc4)no3)CC2)c(C)c1,active: 50.1 µM,,
Cc1cccc(OCCc2noc(C3CCN(C(=O)NC(C)(C)C)C3)n2)c1 (stereo unspecified),"inconclusive: 50.1 µM [inhibitor, partial curve, poor fit]",,
Cc1ccc2c(C(=O)N3CCN(c4ccccc4)CC3)cc(NC(=O)C(C)C)cc2n1,"inconclusive: 44.7 µM [inhibitor, partial curve, poor fit]",,
c1cncc(-c2ccnc3nc(CCC4CCCC4)nn23)c1,"inconclusive: 39.8 µM [inhibitor, partial curve, poor fit]",,

SMILES,Potency,"activity change, negative = cytotoxicity",outcome
CCOC(=O)C1(Cc2ccccc2Cl)CCN(S(=O)(=O)c2ccccc2)CC1,"inconclusive: 63.1 µM [inhibitor, partial curve, poor fit]",,
Cc1cc(Cl)ccc1OCC(=O)N1[C@@H]2CC[C@H]1CC(NC(=O)c1ccc(F)cc1)C2 (stereo partly specified),"inconclusive: 89.1 µM [inhibitor, single point]",,
CCC(C)NC(=O)c1cc(-c2cccc(OC)c2)nc2c1cnn2C (stereo unspecified),"inconclusive: 50.1 µM [inhibitor, partial curve, poor fit] and active: 100 µM",,
CCc1ccc(CNC(=O)CCC2CCCN(S(=O)(=O)c3ccccc3C)C2)cc1 (stereo unspecified),active: 39.8 µM,,
Cc1ccc(-c2cc(C(=O)NCCc3ccc(F)cc3)nn3cnnc23)cc1,"inconclusive: 35.5 µM [inhibitor, full curve]",,
COc1cc(NC(=O)C2CN(S(=O)(=O)C3CC3)CC23CCCCC3)cc(OC)c1 (stereo unspecified),"inconclusive: 39.8 µM [inhibitor, full curve, poor fit]",,
CC1(COc2cccnc2)COc2ccc(C(=O)N3CC[S+](=O)([O-])CC3)cc2N1 (stereo unspecified),"inconclusive: 89.1 µM [inhibitor, partial curve, poor fit]",,
O=C(Nc1ccc(Cl)cc1)N1CCC(C(=O)N2CCC(N3CCCC3=O)CC2)CC1,,inactive: -0.0658%,
C=CCN1C[C@@H]2C[C@@H](C(N)=O)N(C(=O)CC3CCCC3)c3cccc(c32)[S+]1(=O)[O-],"inconclusive: 39.8 µM [inhibitor, partial curve, poor fit]",,
O=C(NCCc1ccc(Cl)cc1)C1CCCN1Cc1ccc(-c2cncnc2)cc1 (stereo unspecified),"inconclusive: 11.2 µM [inhibitor, full curve, poor fit]",,
COc1cccc(NC(=O)N[C@H]2CCN(C(=O)c3cccn3C)[C@@H]2C(=O)N[C@H](Cc2ccccc2)C(N)=O)c1,,inactive: -12.6%,
COc1ccc(OCC2(C)COc3ccc(C(=O)NCC4CCOCC4)cc3N2)cc1 (stereo unspecified),"inconclusive: 89.1 µM [inhibitor, partial curve]",,
O=C(c1ccc2nc(-c3ccc(F)cc3)cn2c1)N1CCSCC1,"inconclusive: 50.1 µM [inhibitor, partial curve, poor fit]",,
CCCCc1ccc(NC(=O)CN2C(=O)NC(c3ccc(C)cc3)C3=C2COC3=O)cc1 (stereo unspecified),active: 44.7 µM,,
CCOC(=O)[C@@H]1CN(C(=O)c2csc(-c3cccs3)n2)[C@H]2c3cccc(F)c3O[C@@H]12,"inconclusive: 56.2 µM [inhibitor, partial curve, poor fit]",,
COc1ccc(CN2CCc3oc(C)c(C(=O)NCc4cccnc4)c3C2)cc1,"inconclusive: 56.2 µM [inhibitor, partial curve, poor fit]",,
COc1ccc(C(=O)NCCC2CCN(C(=O)Nc3cccc(F)c3)CC2)cc1,,inactive: -14.8%,
COc1ccccc1-c1cnc(NC(=O)c2cccnc2)c2c1CCO2,,inactive: -57.9% [at 172 µM],
O=C1C(N2CCN(S(=O)(=O)c3cc(F)ccc3F)CC2)CCN1Cc1cccnc1 (stereo unspecified),"inconclusive: 50.1 µM [inhibitor, partial curve, poor fit]",,
